From PubChem BioAssay AID1347055 (National Center for Advancing Translational Sciences (NCATS), 2019)
Out of some 54,000 compounds screened, about 120 (0.22%) were called active. Inconclusive results, whose numbers are uncertain, are shown with a selection of clear calls. The call rests on the fitted dose curve; in most records, active means well fitted inhibition curve with a large enough effect; inconclusive means small, poorly fitted or top-dose-only effect, or effect the other way; inactive means flat fitted curve, though single readings scatter. No potency is given beside an inconclusive call; the fits are too rough.

Target: Fumarate hydratase, mitochondrial (Homo sapiens) (UniProt P07954)
Test: Identification of activators of human fumarate hydratase by quantitative high-throughput screening; further: the screen sought activators but most active calls are inhibition curves; nearly all actives have a fitted effect of over 45% in size
Details: FH coupled MDH/diaphorase resazurin fluorescence, 15 min; activity change, negative = inhibition: at 79.9 µM (top of the series)
On the % scale 0 is the no-effect control and ±100 the full control effect; potency means the concentration at half of the fitted maximal effect; tags describe the fitted curve by direction and shape.

Chain of UniProt P07954 (P07954 whole entry, looked up): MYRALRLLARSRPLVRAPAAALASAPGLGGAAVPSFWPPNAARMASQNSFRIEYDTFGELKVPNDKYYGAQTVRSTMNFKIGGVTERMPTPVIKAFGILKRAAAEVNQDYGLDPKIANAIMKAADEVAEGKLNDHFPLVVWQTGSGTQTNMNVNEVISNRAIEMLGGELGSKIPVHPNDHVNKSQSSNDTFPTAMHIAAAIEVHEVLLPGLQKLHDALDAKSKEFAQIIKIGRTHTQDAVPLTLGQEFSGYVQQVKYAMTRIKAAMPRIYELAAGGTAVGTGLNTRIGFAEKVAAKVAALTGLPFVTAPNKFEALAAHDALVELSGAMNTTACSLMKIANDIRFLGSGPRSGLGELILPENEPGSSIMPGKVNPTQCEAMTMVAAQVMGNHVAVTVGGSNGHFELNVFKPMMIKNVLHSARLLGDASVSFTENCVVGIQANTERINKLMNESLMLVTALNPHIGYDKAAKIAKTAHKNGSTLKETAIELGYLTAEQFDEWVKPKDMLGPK

Structure (SMILES)	activity change, negative = inhibition	Potency
COc1cccc(CNC(=O)c2ccc3c(Cl)c4c(nc3c2)CCCC4)c1	inactive: -9.91%	–
Cc1ccc(C(C)C)c(OCc2ccc(C(=O)Nc3ccc(S(N)(=O)=O)cc3C)o2)c1	–	inconclusive [inhibitor, single point]
COC(=O)Cn1c(SCCOc2ccccc2Cl)nc2ccccc21	–	inconclusive [inhibitor, single point]
O=C(CCS(=O)(=O)c1nc(-c2ccc3c(c2)OCO3)cc(C(F)(F)F)n1)Nc1ccccc1C(F)(F)F	–	inconclusive [inhibitor, partial curve, poor fit]
CCOc1ccc(CNC(=O)c2ccc(Sc3ccc(C)cc3)c(N)c2)cc1OC	–	inconclusive [inhibitor, single point]
CCn1c(=O)c2cc(C(=O)NCCc3ccc(OC)c(OC)c3)sc2c2ccccc21	–	inconclusive [inhibitor, partial curve, poor fit]
Cc1ccc2nc(Cl)c3cc(C(=O)N4CCCC(C)C4)sc3c2c1 (stereo not given)	–	inconclusive [inhibitor, partial curve, poor fit]
Cc1ccc(NC(=O)C2CCCN(c3nc4ccccc4s3)C2)c(C)c1 (stereo not given)	inactive: 2.13%	–
O=C(Nc1nnc2n1CCS2)c1cc(C(F)(F)F)cc(C(F)(F)F)c1	–	inconclusive [activator, partial curve]
CCCOC(=O)c1cccc(Nc2nc(C(=O)OCC)nc3ccccc23)c1	–	inconclusive [inhibitor, single point]
Cc1ncc(Cl)cc1NCc1ccc(C(=O)NC(CC2CCCC2)C(=O)NC2CC2)s1 (stereo not given)	inactive: -12.1%	–
COc1cccc(C(=O)c2cn(CC(=O)Nc3ccc4c(c3)OCCO4)c3nc(C)ccc3c2=O)c1	–	inconclusive [inhibitor, single point]
Fc1ccc(-n2ncc3c(NCCCc4ccccc4)ncnc32)cc1	inactive: -1.82%	–
O=C(CCc1nnc2n(Cc3ccccc3Cl)c(=O)c3ccccc3n12)Nc1ccccc1	inactive: -1.75%	–
Cc1cccc(NC(=O)c2cc3c(C)nn(-c4ccccc4)c3s2)c1	–	inconclusive [inhibitor, single point]
CCn1cc2nc(SCC(=O)Nc3cccc(Cl)c3C)n(Cc3ccc(Cl)cc3)c(=O)c2n1	–	inconclusive [inhibitor, single point]
CCn1cnc2cc(NCc3ccc(N(C)C)cc3)ccc21	–	inconclusive [inhibitor, full curve, poor fit]
Cc1ccc(CSc2nc3cccnc3n2Cc2nc(-c3ccccc3F)oc2C)cc1	–	inconclusive [inhibitor, single point]
COc1ccc(-c2noc(CSc3nnc(-c4ccncc4)n3-c3ccc(OC)cc3)n2)cc1	–	inconclusive [inhibitor, single point]
Cc1ccc(Cn2c(Cc3ccccc3)nc3ccccc32)cc1	–	inconclusive [inhibitor, single point]

Structure (SMILES)	activity change, negative = inhibition	Potency
Cc1ccc(C(=O)CSc2nc3cc(C(=O)NC4CCCC4)ccc3c(=O)n2CC2CCCO2)cc1 (stereo not given)	–	inconclusive [activator, partial curve, poor fit]
CCCCn1cc(S(=O)(=O)c2ccc(CC)cc2)c(=O)c2cc(F)c(N3CCCC(C)C3)cc21 (stereo not given)	–	inconclusive [inhibitor, single point]
Cc1cccc(Oc2nc3ccccn3c(=O)c2/C=C(\C#N)c2nc3ccccc3s2)c1C	–	inconclusive [inhibitor, partial curve]
CC(=O)c1ccc(NC2=NS(=O)(=O)c3ccccc32)cc1	–	inconclusive [activator, full curve, poor fit]
CCOC(=O)c1c(Nc2cccc(O)c2)nnc(-c2ccccc2)c1-c1ccccc1	–	inconclusive [inhibitor, partial curve]
Cc1cc(C)c(Cn2c3ccccc3c3cnn(CC(=O)NCCc4ccccc4)c(=O)c32)c(C)c1	inactive: -1.75%	–
Cc1cc(C)c(S(=O)(=O)Nc2cc(-c3cn4ccccc4n3)ccc2C)cc1C	inactive: -18.3%	–
Cc1ccc(NS(=O)(=O)c2ccc3[nH]c4c(c3c2)CCCC4)c(C)c1	–	inconclusive [inhibitor, single point]
COc1ccc(CNC(=O)c2cc(-c3cccs3)nc3ccccc23)c(OC)c1	–	inconclusive [inhibitor, partial curve, poor fit]
CCOc1ccccc1N1CC(c2nc3ccccc3n2CCOc2ccc(OC)cc2)CC1=O (stereo not given)	–	inconclusive [inhibitor, partial curve, poor fit]
CC(C)c1ccc2oc(-c3cc(NC(=O)c4cccs4)ccc3Cl)nc2c1	–	inconclusive [inhibitor, partial curve, poor fit]
COc1cccc(NC(=O)c2sc3nc(C)c(C(=O)Nc4ccc(C)cc4C)c(-c4sccc4C)c3c2N)c1	–	inconclusive [inhibitor, single point]
Cc1ccc([C@H]2Nc3ccc(S(=O)(=O)Nc4cccc(Cl)c4C)cc3[C@H]3C=CC[C@H]32)cc1	–	inconclusive [inhibitor, partial curve, poor fit]
CCOC(=O)c1cccc(NC(=O)CCc2c(C)nc3cc(-c4ccc(Cl)cc4)nn3c2C)c1	–	inconclusive [inhibitor, partial curve, poor fit]
CC(Oc1ccc2[nH]nc(/C=C/c3cnn(CCO)c3)c2c1)c1c(Cl)cncc1Cl (stereo not given)	–	inconclusive [inhibitor, single point]
Nc1ccc(-c2nc3ccc(-c4nc5ccc(N)cc5[nH]4)cc3[nH]2)cc1	–	inconclusive [inhibitor, partial curve, poor fit]
COc1cc(-c2noc(CSc3nc(-c4ccccc4)cc(=O)[nH]3)n2)cc(OC)c1OC	–	inconclusive [inhibitor, partial curve]
COc1ccc(-c2ccc(CNc3ccc4[nH]c(=O)[nH]c4c3)o2)cc1Cl	–	inconclusive [inhibitor, partial curve]
CC(C)c1ccc(OC(=O)c2cc(-c3ccc4c(c3)OCCO4)on2)cc1	inactive: -29.7%	–
Cc1cccn2c(Nc3ccccc3)c(-c3ccc(N4CCOCC4)cc3)nc12	inactive: -44.1%	–

Structure (SMILES)	activity change, negative = inhibition	Potency
Cc1oc(-c2ccccc2Cl)nc1Cn1c(SCc2cccc(F)c2)nc2cccnc21	–	inconclusive [inhibitor, partial curve, poor fit]
O=C1/C(=C/c2ccc(O)c(O)c2)Oc2ccccc21	–	inconclusive [inhibitor, partial curve]
Cc1oc(-c2ccc(Cl)cc2)nc1CSc1nc2ncccc2[nH]1	inactive: 0.73%	–
CCc1ccc(-n2c(SCc3ccccc3Cl)nc3[nH]ncc3c2=O)cc1	–	inconclusive [inhibitor, partial curve]
COc1ccc(CNC(=O)Nc2ccc3c(c2)N(C)C(=O)c2ccccc2S3)cc1OC	–	inconclusive [inhibitor, partial curve, poor fit]
Cc1cccc(CNC(=O)c2ccc3nc(Cc4ccccc4)oc3c2)c1	–	inconclusive [inhibitor, single point]
Cc1ccc(CCNC(=O)c2c3c(nc4ccccc24)C(=O)N(C2CCCCC2)C3)cc1	inconclusive: -38.2% [inhibitor]	–
Cc1ccc(CNC(=O)c2c[nH]n3c(=O)c(Cc4ccc(Cl)cc4)c(C)nc23)cc1	–	inconclusive [inhibitor, single point]
CC(=O)c1ccc(NS(=O)(=O)c2ccc3[nH]c4c(c3c2)CCCC4)cc1	–	inconclusive [inhibitor, single point]
Cc1ccc(S(=O)(=O)c2nnn3c2nc(NCCc2ccccc2)c2sccc23)cc1	–	inconclusive [inhibitor, partial curve, poor fit]
CC1CCN(c2nc3ccc(C(=O)NCc4ccccc4Cl)cc3s2)CC1	inactive: -13.1%	–
COC(=O)Nc1ccc(-c2nc(N3CCOCC3)c3cnn(C4CCN(Cc5cccnc5)CC4)c3n2)cc1	–	inactive
Cc1cccn2c(=O)c(C(=O)NCCc3ccccc3)cnc12	–	inconclusive [inhibitor, partial curve, poor fit]
COc1ccc(CNCCC(c2ccc3c(c2)OCO3)c2ccccc2OC)cc1 (stereo not given)	inactive: -5.51%	–
COCCCNC(=O)Cn1c(=O)nc(-c2ccccc2)c2ccccc21	–	inconclusive [inhibitor, partial curve, poor fit]
COc1ccc(-c2nc(SCC(=O)Nc3ccc4c(c3)OCCO4)c(-c3ccc(F)cc3)[nH]2)cc1OC	–	inconclusive [inhibitor, single point]
CC(=O)c1cccc(NC(=O)C2CCCN(C(=O)c3cnn(-c4ccccc4)c3-n3cccc3)C2)c1 (stereo not given)	–	inconclusive [inhibitor, single point]
Cn1c2ccccc2c2cnn(CC(=O)N3CCN(c4cccc(C(F)(F)F)c4)CC3)c(=O)c21	–	inconclusive [inhibitor, partial curve]
O=C(Nc1ccc(Cl)cc1)C1CCCN(C(=O)c2cccc(-c3ccco3)c2)C1 (stereo not given)	–	inconclusive [inhibitor, partial curve, poor fit]
Cc1cc(C)cc(NS(=O)(=O)c2ccc3[nH]cc(C(=O)NC4CCCCC4)c(=O)c3c2)c1	–	inconclusive [inhibitor, single point]
